This passage reports relative growth results from the supplement of paper PMC9446081.

Each structure is given as a SMILES string. Among all 39,000 compounds or so, about 220 (0.56%) showed activity. This is one part of the list.
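Further: static incubation at 37 °C against the wild-type strain, values averaged over two biological replicates.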

The test system of this experiment is Escherichia coli K-12 BW25113. The experiment can be described thus: relative growth (OD600 normalised to plate interquartile mean) (fraction); higher = less growth inhibition, active = 0.2 or less. The following applies: 50 µM; LB; incubation time: overnight (16-24 h).
For the compound `COc1ccc2c3c(n(c2c1)C)[C@H](CO)N(C[C@]13CCN(CC1)C(=O)Nc1cccc(c1)F)C(=O)C1CCCCC1`, the relative growth was inactive: 1.01.

For the compound `Cc1ccc(S(=O)(=O)N(C)C[C@@H]2OCCCC[C@@H](C)Oc3ccc(NC(=O)c4ccccc4)cc3C(=O)N([C@@H](C)CO)C[C@@H]2C)cc1`, the relative growth is inactive: 1.

For the compound `CCCNC(=O)N(C)C[C@@H]1Oc2cc(C#Cc3ccccn3)ccc2S(=O)(=O)N([C@@H](C)CO)C[C@@H]1C`, the relative growth is inactive: 0.971.

Regarding `CC(C)NC(=O)N(C)C[C@H]1OCCCC[C@H](C)Oc2ccc(NC(=O)Nc3ccccc3)cc2C(=O)N([C@H](C)CO)C[C@@H]1C`, the relative growth is inactive: 1.

In the case of `C[C@@H]1CN([C@@H](C)CO)C(=O)Cc2cc(NS(C)(=O)=O)ccc2O[C@@H]1CN(C)S(=O)(=O)c1ccc(F)cc1`, the relative growth is inactive: 0.996.

`Cc1cccnc1[C@@H](NC(=O)C1CCN(Cc2ccc(Oc3ccccc3)cc2)CC1)c1ccc(F)cc1`: the relative growth is inactive: 1.04.

Take `NC[C@H](c1ccncc1)c1ccc[nH]1`: the relative growth was inactive: 0.978.

For `Cc1cnc(NC(=O)C2=C(O)c3ccccc3S(=O)(=O)N2C)s1`, the relative growth is inactive: 1.14.

In the case of `CN(C)CCCNC(=O)C[C@H]1CC[C@@H]2[C@H](COC[C@@H](O)CN2S(=O)(=O)c2ccc(Cl)cc2)O1`, the relative growth is inactive: 1.01.

Turning to `C[C@@H]1CN([C@H](C)CO)S(=O)(=O)c2ccc(C#CCN(C)C)cc2O[C@@H]1CN(C)C`, the relative growth is inactive: 1.

For the compound `Cc1noc(C)c1NC(=O)N(C)C[C@H]1OCCCC[C@@H](C)Oc2ccc(NS(=O)(=O)c3ccc(F)cc3)cc2C(=O)N([C@H](C)CO)C[C@H]1C`, the relative growth was inactive: 0.988.

Turning to `CC1(C)[C@H](C(=O)O)CC[C@@]1(C)C(N)=O`, the relative growth is inactive: 0.986.

With `CC(C)NC(=O)Nc1cccc2c1O[C@H](CN(C)C(=O)Nc1ccc3c(c1)OCO3)[C@H](C)CN([C@@H](C)CO)C2=O`, the relative growth is inactive: 1.

For the compound `CN(C)[C@@H]1C(=O)C(C(=O)NCN2CCCC2)=C(O)[C@@]2(O)C(O)=C3C(=O)c4c(O)cccc4[C@@](C)(O)[C@H]3C[C@@H]12`, the relative growth was inactive: 0.516.

Turning to `C[C@H](CO)N1C[C@H](C)[C@H](CN(C)Cc2ccncc2)Oc2c(NS(=O)(=O)c3ccccc3)cccc2C1=O`, the relative growth is inactive: 1.

As for `CC1=C(/C=C/C(C)=C/C=C/C(C)=C/C(=O)O)C(C)(C)CCC1`, the relative growth was inactive: 0.987.

For the compound `CN1CC(O)C2=CC(=NNC(N)=O)C(=O)C=C21` (stereo not drawn), the relative growth was inactive: 0.978.

As to `C[C@@H]1CCCCO[C@H](CN(C)C(=O)C2CCCCC2)[C@H](C)CN([C@@H](C)CO)C(=O)c2cc(NC(=O)NC3CCCCC3)ccc2O1`, the relative growth was inactive: 1.

In the case of `C[C@H](CO)N1C[C@H](C)[C@H](CN(C)CC2CC2)Oc2ccc(NS(=O)(=O)c3ccccc3)cc2CC1=O`, the relative growth was inactive: 0.983.

In the case of `O=C(O)COC(=O)Cc1ccccc1Nc1c(Cl)cccc1Cl`, the relative growth was inactive: 1.09.

As to `Clc1cccc2ccncc12`, the relative growth is inactive: 0.984.

For the compound `CO[C@H]1CN(C)C(=O)c2cc(NS(C)(=O)=O)ccc2OC[C@H](C)N(C(=O)C2CCCCC2)C[C@@H]1C`, the relative growth is inactive: 0.995.

On to `COc1ccc(-c2cnc3c(c2)C(=O)N([C@H](C)CO)C[C@H](C)[C@H](CN(C)S(=O)(=O)c2ccc(OC)cc2)O3)cc1`, for which the relative growth was inactive: 1.01.

Take `C[C@@H]1CCCCO[C@@H](CN(C)C(=O)NC2CCCCC2)[C@@H](C)CN([C@H](C)CO)C(=O)c2cc(NC(=O)CCC(F)(F)F)ccc2O1`: the relative growth was inactive: 0.957.

In the case of `COc1ccc([Si](C)(C)[C@@H]2[C@@H](CCO)O[C@]3(C(=O)N(Cc4cccc(N5C(=O)COc6ccccc65)c4)c4ccccc43)[C@H]2C)cc1`, the relative growth was inactive: 1.02.

`C[C@@H]1CCCCO[C@@H](CN(C)S(=O)(=O)c2ccc(Cl)cc2)[C@@H](C)CN([C@H](C)CO)C(=O)c2cc(NC(=O)Nc3ccc(C(F)(F)F)cc3)ccc2O1`: the relative growth was inactive: 1.

Regarding `C[C@@H]1CCCCO[C@@H](CN(C)C(=O)CCC(F)(F)F)[C@H](C)CN([C@@H](C)CO)C(=O)c2cc(NS(=O)(=O)c3ccccc3)ccc2O1`, the relative growth was inactive: 0.982.

As to `Cl.O=C1CN2Cc3c(ccc(Cl)c3Cl)N=C2N1`, the relative growth was inactive: 0.918.

In the case of `C[C@@H]1CCCCO[C@H](CN(C)S(=O)(=O)c2ccc(F)cc2)[C@@H](C)CN([C@@H](C)CO)C(=O)c2cc(NS(=O)(=O)c3ccc(Cl)cc3)ccc2O1`, the relative growth is inactive: 1.05.

For the compound `CC(C)NC(=O)N(C)C[C@H]1Oc2cc(C#Cc3ccc(F)cc3)ccc2S(=O)(=O)N([C@H](C)CO)C[C@H]1C`, the relative growth is inactive: 0.913.

With `CC(=O)OCC(=O)C12OC(C)(C)OC1CC1C3CC(F)C4=CC(=O)C=CC4(C)C3(F)C(O)CC12C` (stereo not drawn), the relative growth is inactive: 1.17.

In the case of `COc1ccc([C@@H](N)c2ccncc2)cc1`, the relative growth is inactive: 1.01.

In the case of `Cc1noc(C)c1S(=O)(=O)Nc1ccc2c(c1)C(=O)N([C@@H](C)CO)C[C@H](C)[C@H](CN(C)S(=O)(=O)c1ccccc1)O2`, the relative growth is inactive: 1.02.

On to `COc1ccc(S(=O)(=O)Nc2ccc3c(c2)CC(=O)N([C@@H](C)CO)C[C@@H](C)[C@@H](CN(C)Cc2ccc(Cl)c(Cl)c2)O3)cc1`, for which the relative growth is inactive: 0.988.

Take `O=C(Cn1cc(COc2ccc(-n3cccc3)cc2)nn1)NS(=O)(=O)c1cccc(OC(F)F)c1`: the relative growth was inactive: 0.985.

Consider `O=C1c2c(O)ccc(O)c2C(=O)c2c(NCCNCCO)ccc(NCCNCCO)c21`, for which the relative growth is inactive: 1.11.

As to `C[C@@H]1CN([C@H](C)CO)C(=O)c2cc(NC(=O)NC3CCCCC3)ccc2O[C@@H](C)CCCCO[C@@H]1CN(C)C(=O)C1CCCCC1`, the relative growth is inactive: 1.02.

`COc1ccc2c3c(n(c2c1)C)[C@H](CO)N(C[C@]13CCN(CC1)C(=O)c1ccncc1)C(=O)c1cnccn1`: the relative growth was inactive: 0.981.

Regarding `C[C@H](CO)N1C[C@H](C)[C@@H](CN(C)C(=O)NC2CCCCC2)Oc2cc(-c3cccnc3)ccc2S1(=O)=O`, the relative growth was inactive: 0.991.

`CCCNC(=O)N(C)C[C@H]1Oc2ncc(-c3ccc(C(=O)N(C)C)cc3)cc2C(=O)N([C@H](C)CO)C[C@H]1C`: the relative growth was inactive: 0.994.

For `Cc1ccc(S(=O)(=O)Nc2ccc3c(c2)C(=O)N([C@H](C)CO)C[C@H](C)[C@@H](CN(C)Cc2ccc4c(c2)OCO4)OCCCC[C@@H](C)O3)cc1`, the relative growth was inactive: 0.936.

As to `C[C@@H]1CCCCO[C@H](CN(C)S(=O)(=O)c2cn(C)cn2)[C@H](C)CN([C@@H](C)CO)C(=O)c2cc(NS(=O)(=O)c3ccc(F)cc3)ccc2O1`, the relative growth is inactive: 0.987.

As to `CC(C)NC(=O)N(C)C[C@H]1Oc2ccc(NC(=O)Cn3cnnn3)cc2C(=O)N([C@H](C)CO)C[C@H]1C`, the relative growth is inactive: 1.

`C[C@@H]1CN([C@H](C)CO)S(=O)(=O)c2ccc(C#Cc3ccncc3)cc2O[C@H]1CN(C)C(=O)C1CCOCC1`: the relative growth is inactive: 0.992.

With `COc1ccc(CN(C)C[C@H]2OCCCC[C@@H](C)Oc3ccc(NC(=O)NC(C)C)cc3C(=O)N([C@H](C)CO)C[C@@H]2C)cc1`, the relative growth was inactive: 0.987.

In the case of `COc1ccc(NC(=O)N(C)C[C@@H]2Oc3c(NC(=O)C4CCOCC4)cccc3C(=O)N([C@H](C)CO)C[C@H]2C)cc1`, the relative growth is inactive: 1.

For the compound `Cc1noc(C)c1S(=O)(=O)N(C)C[C@@H]1Oc2ccc(NS(=O)(=O)c3cccs3)cc2CC(=O)N([C@H](C)CO)C[C@@H]1C`, the relative growth is inactive: 1.

Regarding `C[C@H](CO)N1C[C@H](C)[C@H](CN(C)S(C)(=O)=O)Oc2ccc(NC(=O)Nc3ccc4c(c3)OCO4)cc2C1=O`, the relative growth is inactive: 1.

Regarding `C[C@@H]1CN([C@H](C)CO)C(=O)CCCn2cc(nn2)CO[C@H]1CN(C)S(=O)(=O)c1cccc(C#N)c1`, the relative growth was inactive: 0.949.

Take `CC(C)NC(=O)N[C@H]1C=C[C@@H](CC(=O)NCCN2CCCC2)O[C@H]1CO`: the relative growth was inactive: 0.983.

`Cc1noc(C)c1NC(=O)N(C)C[C@@H]1Oc2ncc(C#Cc3ccccc3)cc2C(=O)N([C@H](C)CO)C[C@@H]1C`: the relative growth is inactive: 1.03.

For `COC(=O)c1c2oc(c1C(=O)OC)C(=O)N[C@H](Cc1ccccc1)Cn1cc(nn1)[C@H](Cc1ccccc1)NC(=O)N[C@H](CO)CC2`, the relative growth was inactive: 0.948.

With `COc1ccc(S(=O)(=O)N(C)C[C@H]2Oc3c(NC(=O)C4CC4)cccc3C(=O)N([C@@H](C)CO)C[C@H]2C)cc1`, the relative growth is inactive: 1.

Take `Cn1nc2c(c1N)CCC2`: the relative growth was inactive: 0.941.

Regarding `C[C@@H]1CCCCO[C@@H](CN(C)CC2CCCCC2)[C@@H](C)CN([C@H](C)CO)C(=O)c2cc(NS(=O)(=O)c3cccs3)ccc2O1`, the relative growth is inactive: 0.977.

Take `C[C@@H]1CN([C@H](C)CO)C(=O)Cc2cc(NC(=O)CCC(F)(F)F)ccc2O[C@@H]1CN(C)Cc1ccc(C(F)(F)F)cc1`: the relative growth is inactive: 1.

Regarding `O=C(O)c1ccccc1-c1ccco1`, the relative growth is inactive: 0.975.

As to `C[C@H]1CCCCO[C@@H](CN(C)C(=O)C2CCCCC2)[C@@H](C)CN([C@@H](C)CO)C(=O)c2cc(NC(=O)c3ccccc3)ccc2O1`, the relative growth was inactive: 0.992.

`COc1ccc(S(=O)(=O)N(C)C[C@H]2Oc3c(NS(=O)(=O)c4ccc(C)cc4)cccc3C(=O)N([C@@H](C)CO)C[C@@H]2C)cc1`: the relative growth was inactive: 1.

For `C[C@@H]1CCCCO[C@@H](CN(C)C(=O)C2CCCCC2)[C@H](C)CN([C@@H](C)CO)C(=O)c2cc(NC(=O)CCC(F)(F)F)ccc2O1`, the relative growth was inactive: 0.988.

`C[C@@H]1CCCCO[C@@H](CN(C)S(=O)(=O)c2ccc(F)cc2)[C@@H](C)CN([C@@H](C)CO)C(=O)c2cc(NC(=O)Cc3ccccc3)ccc2O1`: the relative growth was inactive: 1.03.

With `C[C@H]1CNC(=CC(=O)c2ccccc2)C(=O)N1`, the relative growth was inactive: 1.02.

Regarding `Cc1nccn1CCC(=O)O`, the relative growth is inactive: 0.988.
